About 1,800 (2.5%) of roughly 71,000 compounds were called active. This list was built around the results that the source calls inconclusive (neither active nor inactive); the mix of calls is not that of the screen. Calls come from the whole dose curve; as a rule, active = well fitted activation curve with a large enough effect in the signal ratio, with a control signal flat (not every such curve was filed as active); inconclusive = small, poorly fitted or top-dose-only effect, or effect the other way, or a change in a side signal; inactive = flat fitted curve, though single readings scatter; the % refers to the signal ratio. A potency beside an inconclusive call is a rough fit, not a confirmed value.
experiment: Cell signaling CRE-BLA (Fsk stim); details: CHO CRE-bla reporter (cAMP response element driving beta-lactamase), forskolin EC10, beta-lactamase ratio; activity change, negative = inhibition: at 38.2 µM (top of the series) unless noted; for activity change, negative = inhibition: % of control where 0% means no effect
Method in brief: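 Using CellSensor CRE-bla CHO cells in Opti-MEM with 0.5% dialyzed FBS, compounds were titrated with EC10 NKH 477 for 3 h at 37 °C. CCF4 ratio (460/530 nm) gave %Activity; AC50 derived.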
Potency is the fitted concentration of half-maximal effect; tags give direction and shape of the fitted curve.

Row | Structure (SMILES) | activity change, negative = inhibition | Potency
1 | O=C(c1ccc(Cn2cc(Cl)cn2)o1)N1CCN(Cc2ccc3c(c2)OCO3)CC1 | inactive | –
2 | CCOc1ccc(C(C)=O)cc1CSc1nnc(-c2ccoc2C)n1N | – | inconclusive: 5.01 µM [falling, single point]
3 | Cn1cccc1C(=O)N1CCC[C@@]2(CCN(Cc3ccc(C#N)cc3)C2)C1 | inactive | –
4 | O=C(Cn1cc(C(=O)c2cccs2)c2ccccc21)NCc1ccc2c(c1)OCO2 | inconclusive: 6.56% | –
5 | CCOC(=O)C1CCCN(C(=O)CC(C)c2ccccc2)C1 (stereo not drawn) | inconclusive: 31.6% [at 7.6 µM] | –
6 | CC(=O)c1cccc(NC(=O)c2cc(-c3ccc(F)cc3)on2)c1 | inconclusive: 28% | –
7 | Cc1ccc(S(=O)(=O)N2CCN(S(=O)(=O)N3CCCCC3)CC2)cc1 | inconclusive: 3.56% | –
8 | CCCCCCCC/C=C\CCCCCCCC(=O)N(CCO)CCO | – | active: 10 µM
9 | CCOC(=O)NC1(C(F)(F)F)C(=O)NC(C)=C1C(=O)OC (stereo not drawn) | inactive | –
10 | COC(=O)N1CCC[C@@]2(CCN(c3ccccc3)C2)C1 | inactive | –
11 | COc1ccccc1C(=O)NCCCN1CCCC1=O | inactive | –
12 | c1cncc(CNc2cc(-c3ccc4c(c3)OCO4)ncn2)c1 | – | inconclusive: 10 µM [rising, partial curve]
13 | Cc1csc(C(C#N)C(=O)c2ccc(S(=O)(=O)N3CCCC3)cc2)n1 (stereo not drawn) | inconclusive: 8.86% | –
14 | CN(C)c1ncc2nc(-c3cc(F)cc(F)c3)c(=O)n(CCC#N)c2n1 | – | inconclusive: 2 µM [rising, full curve]
15 | CS(=O)(=O)N1CCCC(C(=O)NCCc2ccc(Cl)cc2)C1 (stereo not drawn) | inconclusive: 3.59% | –
16 | Cc1cc(C)c2ccc(C)[n+]([O-])c2c1O | – | inconclusive: 0.501 µM [rising, single point]
17 | Cc1ccc(C(=O)Nc2ccc3c(c2)OCO3)cc1S(=O)(=O)N1CCCC1 | inconclusive: 0.3% | –
18 | CC1CCCC(C(=O)OCc2ccccc2)N1 (stereo not drawn) | inconclusive: -0.996% | –
19 | Cc1ccc(C2C3=C(CC(C)(C)CC3=O)Nc3[nH]c(=S)[nH]c(=O)c32)cc1 (stereo not drawn) | inconclusive: 1.43% | –
20 | CC1CN(Cc2nc3c(c(=O)n(C)c(=O)n3C)n2CC(=O)c2ccccc2)CC(C)O1 (stereo not drawn) | inactive | –
21 | CCS(=O)(=O)N1CCC(C(=O)N2CCc3ccccc3C2)CC1 | inconclusive: -28.9% | –
22 | Cc1onc(-c2ccccc2Cl)c1C(=O)OCC(=O)c1ccc2c(c1)OCCO2 | inconclusive: 3.91% | –
23 | COc1ccccc1NC(=O)N(Cc1ccc2c(c1)OCO2)Cc1nc2ccccc2c(=O)[nH]1 | – | inconclusive: 0.794 µM [rising, full curve, poor fit]
